Reference: the supplement of paper PMC8728848
The other results are listed elsewhere or left out.

Columns and labels:
Experiment in all cases: glycan array binding signal (z-score within array); higher = stronger binding
Settings in all cases: glycan notation: IUPAC condensed, linker removed
[1] = target: Fuc(a1-2)[GalNAc(a1-3)]Gal(b1-3)GlcNAc(b1-6)GalNAc
Method in brief: (§1)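 Glycan array data were curated from 3228 arrays in the Consortium for Functional Glycomics database and kept only where the protein sequence was available. Glycan names were converted to IUPAC-condensed notation, and columns mapping to the same glycan were averaged. The binding signal is a within-array Z-score, averaged across arrays of the same protein sequence at different concentrations or buffers and across linkers. Negative Z-scores can be read as non-binding.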

[2] = target: Fuc(a1-2)[GalNAc(a1-3)]Gal(b1-4)Glc
Method in brief: as §1

[3] = target: Fuc(a1-2)[GalNAc(a1-3)]Gal(b1-4)GlcNAc
Method in brief: as §1

[4] = target: Fuc(a1-2)[GalNAc(a1-3)]Gal(b1-4)GlcNAc(b1-2)Man
Method in brief: as §1

[5] = target: Fuc(a1-2)[GalNAc(a1-3)]Gal(b1-4)GlcNAc(b1-2)Man(a1-3)[Fuc(a1-2)[GalNAc(a1-3)]Gal(b1-4)GlcNAc(b1-2)Man(a1-6)]Man(b1-4)GlcNAc(b1-4)GlcNAc
Method in brief: as §1

[6] = target: Fuc(a1-2)[GalNAc(a1-3)]Gal(b1-4)GlcNAc(b1-2)Man(a1-3)[Fuc(a1-2)[GalNAc(a1-3)]Gal(b1-4)GlcNAc(b1-2)Man(a1-6)]Man(b1-4)GlcNAc(b1-4)[Fuc(a1-6)]GlcNAc
Method in brief: as §1

[7] = target: Fuc(a1-2)[GalNAc(a1-3)]Gal(b1-4)GlcNAc(b1-3)Gal(b1-4)GlcNAc
Method in brief: as §1

[8] = target: Fuc(a1-2)[GalNAc(a1-3)]Gal(b1-4)GlcNAc(b1-3)Gal(b1-4)GlcNAc(b1-3)Gal(b1-4)GlcNAc
Method in brief: as §1

[9] = target: Fuc(a1-2)[GalNAc(a1-3)]Gal(b1-4)GlcNAc(b1-3)GalNAc
Method in brief: as §1

[10] = target: Fuc(a1-2)[GalNAc(a1-3)]Gal(b1-4)GlcNAc(b1-3)[Fuc(a1-2)[GalNAc(a1-3)]Gal(b1-4)GlcNAc(b1-6)]GalNAc
Method in brief: as §1

[11] = target: Fuc(a1-2)[GalNAc(a1-3)]Gal(b1-4)GlcNAc(b1-6)GalNAc
Method in brief: as §1

[12] = target: Fuc(a1-2)[GalNAc(a1-3)]Gal(b1-4)[Fuc(a1-3)]GlcNAc
Method in brief: as §1

[13] = target: Fuc(a1-2)[GalNAc(a1-3)]Gal(b1-4)[Fuc(a1-3)]GlcNAc(b1-3)GalNAc
Method in brief: as §1

[14] = target: Fuc(a1-2)[GalNAc(a1-4)]Gal(b1-4)GlcNAc
Method in brief: as §1

[15] = target: Fuc(a1-2)[GalNAc(b1-3)]Gal
Method in brief: as §1

Fuc(a1-3)GlcNAc = target: Fuc(a1-3)GlcNAc
Method in brief: as §1

[16] = target: Fuc(a1-3)[Gal(b1-4)]Glc6S
Method in brief: as §1

[17] = target: Fuc(a1-3)[Gal(b1-4)]GlcNAc
Method in brief: as §1

[18] = target: Fuc(a1-3)[Gal(b1-4)]GlcNAc(b1-2)Man
Method in brief: as §1

[19] = target: Fuc(a1-3)[Gal(b1-4)]GlcNAc(b1-2)Man(a1-3)[Fuc(a1-3)[Gal(b1-4)]GlcNAc(b1-2)Man(a1-6)]Man(b1-4)GlcNAc(b1-4)GlcNAc
Method in brief: as §1

[20] = target: Fuc(a1-3)[Gal(b1-4)]GlcNAc(b1-2)Man(a1-3)[Fuc(a1-3)[Gal(b1-4)]GlcNAc(b1-2)Man(a1-6)]Man(b1-4)GlcNAc(b1-4)[Fuc(a1-6)]GlcNAc
Method in brief: as §1

[21] = target: Fuc(a1-3)[Gal(b1-4)]GlcNAc(b1-3)Gal(b1-3)[Fuc(a1-4)]GlcNAc
Method in brief: as §1

[22] = target: Fuc(a1-3)[Gal(b1-4)]GlcNAc(b1-3)Gal(b1-4)[Fuc(a1-3)]GlcNAc
Method in brief: as §1

[23] = target: Fuc(a1-3)[Gal(b1-4)]GlcNAc(b1-3)Gal(b1-4)[Fuc(a1-3)]GlcNAc(b1-3)Gal(b1-4)[Fuc(a1-3)]GlcNAc
Method in brief: as §1

[24] = target: Fuc(a1-3)[Gal(b1-4)]GlcNAc(b1-3)GalNAc
Method in brief: as §1

[25] = target: Fuc(a1-3)[Gal(b1-4)]GlcNAc(b1-6)GalNAc
Method in brief: as §1

[26] = target: Fuc(a1-3)[Gal(b1-4)]GlcNAc(b1-6)[Gal(b1-3)GlcNAc(b1-3)]Gal(b1-4)Glc
Method in brief: as §1

[27] = target: Fuc(a1-3)[Gal(b1-4)]GlcNAc6S
Method in brief: as §1

[28] = target: Fuc(a1-3)[Gal3S(b1-4)]Glc
Method in brief: as §1

[29] = target: Fuc(a1-3)[Gal3S(b1-4)]GlcNAc
Method in brief: as §1

[30] = target: Fuc(a1-3)[Gal3S(b1-4)]GlcNAc6S
Method in brief: as §1

[31] = target: Fuc(a1-3)[GalNAc(b1-4)]GlcNAc
Method in brief: as §1

[32] = target: Fuc(a1-3)[GalNAc(b1-4)]GlcNAc6S
Method in brief: as §1

Fuc(a1-4)GlcNAc = target: Fuc(a1-4)GlcNAc
Method in brief: as §1

Fuc(b1-3)GlcNAc = target: Fuc(b1-3)GlcNAc
Method in brief: as §1

Gal(a1-2)Gal = target: Gal(a1-2)Gal
Method in brief: as §1

Gal(a1-3)Gal = target: Gal(a1-3)Gal
Method in brief: as §1

Gal(a1-3)Gal(b1-3)GlcNAc = target: Gal(a1-3)Gal(b1-3)GlcNAc
Method in brief: as §1

[33] = target: Gal(a1-3)Gal(b1-3)GlcNAc(b1-2)Man
Method in brief: as §1

[34] = target: Gal(a1-3)Gal(b1-3)GlcNAc(b1-2)Man(a1-3)[Gal(a1-3)Gal(b1-3)GlcNAc(b1-2)Man(a1-6)]Man(b1-4)GlcNAc(b1-4)GlcNAc
Method in brief: as §1

[35] = target: Gal(a1-3)Gal(b1-3)GlcNAc(b1-3)GalNAc
Method in brief: as §1

[36] = target: Gal(a1-3)Gal(b1-3)GlcNAc(b1-6)GalNAc
Method in brief: as §1

[37] = target: Gal(a1-3)Gal(b1-3)[Fuc(a1-4)]GlcNAc(b1-2)Man(a1-3)[Gal(a1-3)Gal(b1-3)[Fuc(a1-4)]GlcNAc(b1-2)Man(a1-6)]Man(b1-4)GlcNAc(b1-4)GlcNAc
Method in brief: as §1

Gal(a1-3)Gal(b1-4)Glc = target: Gal(a1-3)Gal(b1-4)Glc
Method in brief: as §1

Gal(a1-3)Gal(b1-4)GlcNAc = target: Gal(a1-3)Gal(b1-4)GlcNAc
Method in brief: as §1

B1: PX9937J-pdi-523-26-523 (Parabacteroides distasonis) (protein)
chain: EPVSSISDANYWKSPDLFKAFNIGLHGLLRSQSSYNIFVLGEPRSDIYGDQPFGGEATQGVERFSYNTINAEFTGISNFANFYTTLNQINLMIRRTNETDLLGEAEKNYYLGQAYGLRAYIYFHLLRSWGDVIITTEPTLGSELDISHLDKAASPASEVMDLIKKDIDASEKAFGGDYSYKQGKCYWSKPATLMLKGEVYLWSGRQMGGGTGDYTVAKTALQDLQQNGNLKLQEKFTDVFSFNNKENSEMIFALHSGKEDDFMMWRDYNWRNNMVPQREYMAGYCDETGTPFLEIPGYNLQGLMRYQVKKDHYLKSFREGDTRLKGTLKAVYKKHEDGTLEYIAPIQYKFQGTTLEGSNERSWYDDYPIYRYADALLLLAEAKALLGEDPSTEINAVRERAYGSEYFNAHKNEVAYPNDKGSFYNDNPFEAGDENVMEAILKERLREFFFEGKRWYDLRRFGKDYVLKYTTAQESRLLWPINEGALTNNPALKQTPGY
glycan array binding signal (z-score) [1]: -0.087 | glycan array binding signal (z-score) [2]: -0.35 | glycan array binding signal (z-score) [3]: -0.485 | glycan array binding signal (z-score) [4]: -0.345 | glycan array binding signal (z-score) [5]: -0.534 | glycan array binding signal (z-score) [6]: 0.009 | glycan array binding signal (z-score) [7]: 0.126 | glycan array binding signal (z-score) [8]: -0.377 | glycan array binding signal (z-score) [9]: -0.492 | glycan array binding signal (z-score) [10]: -0.056 | glycan array binding signal (z-score) [11]: -0.639 | glycan array binding signal (z-score) [12]: -0.526 | glycan array binding signal (z-score) [13]: -0.702 | glycan array binding signal (z-score) [14]: -0.432 | glycan array binding signal (z-score) [15]: 0.191 | glycan array binding signal (z-score) (Fuc(a1-3)GlcNAc): -0.25 | glycan array binding signal (z-score) [16]: -0.103 | glycan array binding signal (z-score) [17]: 0.039 | glycan array binding signal (z-score) [18]: -0.124 | glycan array binding signal (z-score) [19]: -0.204 | glycan array binding signal (z-score) [20]: -0.6 | glycan array binding signal (z-score) [21]: -0.836 | glycan array binding signal (z-score) [22]: -0.212 | glycan array binding signal (z-score) [23]: -0.256 | glycan array binding signal (z-score) [24]: -0.643 | glycan array binding signal (z-score) [25]: -0.093 | glycan array binding signal (z-score) [26]: -0.503 | glycan array binding signal (z-score) [27]: 5.71 | glycan array binding signal (z-score) [28]: 0.216 | glycan array binding signal (z-score) [29]: -0.156 | glycan array binding signal (z-score) [30]: -0.203 | glycan array binding signal (z-score) [31]: 0.207 | glycan array binding signal (z-score) [32]: 0.629 | glycan array binding signal (z-score) (Fuc(a1-4)GlcNAc): -0.247 | glycan array binding signal (z-score) (Fuc(b1-3)GlcNAc): 0.101 | glycan array binding signal (z-score) (Gal(a1-2)Gal): -0.363 | glycan array binding signal (z-score) (Gal(a1-3)Gal): -0.318 | glycan array binding signal (z-score) (Gal(a1-3)Gal(b1-3)GlcNAc): -0.039 | glycan array binding signal (z-score) [33]: -0.414 | glycan array binding signal (z-score) [34]: 0.98 | glycan array binding signal (z-score) [35]: -0.115 | glycan array binding signal (z-score) [36]: -0.482 | glycan array binding signal (z-score) [37]: -0.273 | glycan array binding signal (z-score) (Gal(a1-3)Gal(b1-4)Glc): 1.7 | glycan array binding signal (z-score) (Gal(a1-3)Gal(b1-4)GlcNAc): -0.594
